Reference: patent US20150361149A1 (FLORIDA STATE UNIVERSITY RESEARCH FOUNDATION, published 2015)

Molecular target: T1, extracellular domain of human FGF receptor-1c (FGFR-1c), ligand-binding immunoglobulin-like domains D2, D3 … (human, UniProt P11362 131-365)
T1 construct: range 131-365; Soluble analyte in all SPR studies; also called soluble FGFR-1c; not shown: N-terminal His tag for purification
T1 sequence (looked up): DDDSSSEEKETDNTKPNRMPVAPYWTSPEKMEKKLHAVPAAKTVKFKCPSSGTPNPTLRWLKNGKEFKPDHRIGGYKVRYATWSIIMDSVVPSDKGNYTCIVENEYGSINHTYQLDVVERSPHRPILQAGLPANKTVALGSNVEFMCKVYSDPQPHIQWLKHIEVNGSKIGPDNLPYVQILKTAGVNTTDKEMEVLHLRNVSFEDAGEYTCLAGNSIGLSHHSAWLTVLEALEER
Experiment: SPR (Biacore T-100, 25 C), FGF-1 amine-coupled to CM5 chip, soluble FGFR-1c as analyte 0-256 nM, bivalent analyte model
Source text: FGF-1 and mutant proteins were immobilized as the “ligand” on the SPR sensor chip, and the extracellular domain of human FGFR-1c was used as the soluble “analyte” in all studies. Recombinant FGFR-1c protein was expressed and purified from an insect cell-Baculovirus system as previously described (Lee, J. et al. (2009). Acta Crystallogr., Sect. F. 65, 1097-1104). The FGFR-1c recombinant protein contains the ligand-binding immunoglobulinlike domains D2, D3, and interconnecting linker (residues 131 to 365) and includes an N-terminal His tag for purification purposes. […] The association/dissociation phase was measured by flowing 0-256 nM FGFR-1c analyte over the FGF-1/mutant protein CM5 Sensor Chip at a flow rate of 75 μl/min for 280 s. […] The control flow cell response was subtracted from the ligand sample cell for each receptor injection; the 0 M concentration sensorgram values were subsequently subtracted from the analyte runs, and the resulting sensorgrams were analyzed with the Biacore T100 Evaluation v2.0 software package (GE Healthcare).

B1: human fibroblast growth factor-1 (FGF-1), 140 amino acid form (ligand)
chain: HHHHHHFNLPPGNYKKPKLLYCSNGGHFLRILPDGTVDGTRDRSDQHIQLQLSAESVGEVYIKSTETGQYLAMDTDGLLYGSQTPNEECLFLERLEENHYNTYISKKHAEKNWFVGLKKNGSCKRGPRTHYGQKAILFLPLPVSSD
notes: In SPR it was amine-coupled to the chip; also called acidic FGF
Kd: 6.96 nM
